{"source": "PubChem BioAssay AID1345082", "about": "(National Center for Advancing Translational Sciences (NCATS), 2018)", "note": "In all, about 94,000 compounds went through this assay and about 4,000 (4.3%) were called active. The inconclusive results got no clear call from the source; some entries with a clear call stand among them for comparison. Calls follow the shape of the dose curve; as a rule, active = well fitted inhibition curve with a large enough effect; inconclusive = small, poorly fitted or top-dose-only effect; inactive = no such curve, though single readings can be large or run the other way. Where the call is inconclusive, the potency comes from a doubtful curve fit. Potency is read from the fitted curve at half-maximal effect; tags tell the direction and shape of the fitted curve."}
{"assay": "Cytotoxic Profiling in NIH 3T3 Cell Line of Diverse Libraries Using Quantitative High-Throughput Screening; also: nearly all actives have a fitted effect of over 55% in size", "conditions": "NIH 3T3 viability, CellTiter-Glo ATP luminescence, 48-72 h; series mostly up to 96.7 µM", "in_short": "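NIH 3T3 cells at 400 cells/well received 23 nL of compound by pintool and were incubated 48 or 72 h at 37 °C. Viability was read as ATP-coupled CellTiter-Glo luminescence.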"}
{"smiles": "O=c1cc(N2CCOCC2)oc2c(-c3cccc(F)c3)nccc12", "Potency": "inconclusive: 17.8 µM [inhibitor, full curve, poor fit]"}
{"smiles": "CC(=O)N1CCc2nc(-c3ccccc3)nc(-c3ccc(Cl)cc3)c2C1", "Potency": "inconclusive: 50.1 µM [inhibitor, partial curve, poor fit]"}
{"smiles": "Cc1ccc(NC(=O)Cn2ccn3nc(-c4ccccc4)c(CO)c3c2=O)cc1Cl", "Potency": "inconclusive: 70.8 µM [inhibitor, single point]"}
{"smiles": "O=C(CCC1CCCN(S(=O)(=O)c2cccc(F)c2)C1)N1CCc2ccccc2C1", "note": "(stereo not given)", "Potency": "inconclusive: 50.1 µM [inhibitor, partial curve, poor fit]"}
{"smiles": "FC(F)(F)c1ccc(-c2noc([C@@H]3Cc4nc[nH]c4CN3Cc3cc4ccccc4o3)n2)cc1", "Potency": "inconclusive: 50.1 µM [inhibitor, partial curve, poor fit]"}
{"smiles": "O=C(Cc1ccc(Cl)cc1)N1CCC2(CC1)CN(C1CCC1)CC2CO", "note": "(stereo not given)", "Potency": "inconclusive: 44.7 µM [inhibitor, partial curve, poor fit]"}
{"smiles": "O=c1c2cc(-c3cccs3)nn2ccn1CC(O)c1ccc(F)cc1", "note": "(stereo not given)", "Potency": "inactive"}
{"smiles": "CCOc1ccccc1C(=O)NC1CCN(c2cc(-c3ccccc3)[nH]n2)C1", "note": "(stereo not given)", "Potency": "inconclusive: 50.1 µM [inhibitor, partial curve, poor fit]"}
{"smiles": "O=C(COc1ccc(Cl)cc1)N1CCC[C@H]1c1nc(-c2ccc(F)cc2)no1", "Potency": "inconclusive: 50.1 µM [inhibitor, partial curve, poor fit]"}
{"smiles": "Cn1nc(C2CCCC2)cc1NC(=O)c1ccc(Cl)cc1", "Potency": "inconclusive: 79.4 µM [inhibitor, partial curve, poor fit]"}
{"smiles": "COc1ccc(CN2CCOc3nc(-c4cc(F)cc(OC)c4)ncc3C2=O)cc1", "Potency": "inconclusive: 35.5 µM [inhibitor, partial curve, poor fit]"}
{"smiles": "COc1cccc(OCc2nc(C(=O)N3CCCC3c3nccs3)co2)c1", "note": "(stereo not given)", "Potency": "inactive"}
{"smiles": "O=C(Nc1ccccc1)N1CCN(c2nccc(Nc3ccccc3Cl)n2)CC1", "Potency": "inconclusive: 39.8 µM [inhibitor, partial curve, poor fit]"}
{"smiles": "Cc1ccc(C(=O)N2CCC(Oc3ncccc3C(=O)N3CCCCC3)C2)cc1C", "note": "(stereo not given)", "Potency": "inconclusive: 70.8 µM [inhibitor, single point]"}
{"smiles": "COc1cccc(-c2cc(-c3ccccc3OC)nc3c(C)noc23)c1", "Potency": "inconclusive: 44.7 µM [inhibitor, partial curve]"}
{"smiles": "Cc1nn2c(c1-c1ccnn1C(C)C)N(C(=O)Cc1cccc(F)c1)CCC2", "Potency": "inconclusive: 56.2 µM [inhibitor, partial curve, poor fit]"}
{"smiles": "CNC(=O)[C@H]1CN(C(=O)NCc2ccccc2)[C@]2(C)C(=O)N(CC(=O)N(C)C)c3ccccc3[C@H]12", "Potency": "inconclusive: 35.5 µM [inhibitor, partial curve, poor fit]"}
{"smiles": "O=C(NC1CCN(c2cc(-c3ccccc3)[nH]n2)C1)c1ccc(F)c(Cl)c1", "note": "(stereo not given)", "Potency": "inconclusive: 50.1 µM [inhibitor, partial curve, poor fit]"}
{"smiles": "COc1ccc(-c2[nH]nc3ncc(-c4ccccc4OC)nc23)c(C)c1", "Potency": "inconclusive: 56.2 µM [inhibitor, partial curve, poor fit]"}
{"smiles": "COc1nccnc1NC1CCN(C(=O)c2cnccn2)CC1", "Potency": "inactive"}
{"smiles": "O=C(NCc1ccccc1)c1c(-c2cccnc2)cc(=O)n2c1CCCC2", "Potency": "inactive"}
{"smiles": "CC(C)C[C@@H]1N[C@H](C(=O)NCC2CC2)Cc2cn(Cc3ccccn3)c3cccc1c23", "Potency": "active: 39.8 µM"}
{"smiles": "COc1ccc(-c2cc(N3CCN(C(=O)c4ccc(C)c(F)c4)CC3)n[nH]2)cc1", "Potency": "inconclusive: 44.7 µM [inhibitor, partial curve, poor fit]"}
{"smiles": "COCC(=O)N1CCC(N2C[C@H](O)C[C@H]2C(=O)NC2CCCCC2)CC1", "Potency": "inconclusive: 79.4 µM [inhibitor, partial curve, poor fit]"}
{"smiles": "Cn1ccnc1CN1C(=O)CO[C@H]2CN(CCCc3ccccc3)C[C@H]21", "Potency": "active: 112 µM"}
{"smiles": "O=C(CC[C@H]1NC(=O)c2ccccc2NC1=O)NCCn1ccc2c(Cl)cccc21", "Potency": "inactive"}
{"smiles": "COc1ccc(-c2cc(C[C@H]3CNCC[C@H]3CC(=O)N3CCOCC3)no2)cc1", "Potency": "inactive"}
{"smiles": "COc1ccc(-c2ccnc(N[C@H]3CO[C@H]4[C@@H]3OC[C@@H]4NS(=O)(=O)c3cccs3)n2)cc1", "Potency": "inactive"}
{"smiles": "O=C(c1ccc(Cl)cc1)N1CC2(CCN(Cc3cccnc3)C2)Cc2ccccc21", "note": "(stereo not given)", "Potency": "inconclusive: 31.6 µM [inhibitor, partial curve, poor fit]"}
{"smiles": "O=c1cc(-c2ccccn2)oc2c(NCc3ccc(F)cc3)nccc12", "Potency": "inactive"}
{"smiles": "O=C(Nc1ccc(F)cc1)c1ccn2nccc2c1", "Potency": "inactive"}
{"smiles": "COc1ccccc1-n1c(=O)c(C(=O)N2CCN(C(=O)c3ccc(C(F)(F)F)cc3)CC2)nc2cccnc21", "Potency": "inactive"}
{"smiles": "CCCC(=O)N1CCC(Oc2ccc3c(cnn3CCC(=O)O)c2)CC1", "Potency": "inconclusive: 100 µM [inhibitor, partial curve, poor fit]"}
{"smiles": "COc1ccc(C(=O)N2CCCC(c3noc(COc4ccccc4F)n3)C2)cc1", "note": "(stereo not given)", "Potency": "inconclusive: 79.4 µM [inhibitor, partial curve, poor fit]"}
{"smiles": "O=C(NCc1cccc(F)c1)c1cnc2c(c1)N(C(=O)Cc1ccc(O)cc1)CCC2", "Potency": "inactive"}
{"smiles": "CC(=O)N1CCN([C@H]2[C@@H]3OC[C@@H](O3)[C@@H](NCc3ccco3)[C@@H]2O)CC1", "Potency": "inconclusive: 100 µM [inhibitor, single point]"}
{"smiles": "O=C(c1ccccc1F)N1CCC(C(=O)N2CCC(N3CCCC3=O)CC2)CC1", "Potency": "inactive"}
{"smiles": "c1ccc(OCC2CN(Cc3ccncc3)CC23CN(c2ccccc2)C3)cc1", "note": "(stereo not given)", "Potency": "active: 89.1 µM"}
{"smiles": "COc1ccc(CNC(=O)c2ccc3c(c2)N=C(C)c2c(C)ccc(C)c2S3)cc1", "Potency": "inconclusive: 6.31 µM [inhibitor, full curve, poor fit]"}
{"smiles": "CCc1[nH]c2c(CNC(=O)CC3NC(=O)c4ccccc43)cc(C)cc2c1C", "note": "(stereo not given)", "Potency": "inconclusive: 50.1 µM [inhibitor, partial curve, poor fit]"}
